Results published in PubChem BioAssay AID624255 (Broad Institute, 2012).
The whole screen tested about 77,000 compounds, of which about 4,600 (6%) were called active. The shares of active, inactive and inconclusive entries below differ from those in the screen.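 How the source made its calls: active means mean inhibition above about 93%, with at least 55% of replicates each passing it (limit read from the data, passing the limit was not always enough); inconclusive means only one of those two conditions holds; inactive means neither condition holds.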

assay: T. cruzi intracellular proliferation inhibitors, primary screen, cell-based, beta-gal Tulahuen parasites, NIH3T3 host, luminescence (AID 624255); conditions: T. cruzi beta-gal in NIH3T3, GalScreen luminescence, 90 h; at 8.34 µM; stronger effect = higher value

Row | Compound | inhibition
1 | C[C@@H]1CCCCO[C@@H](CN(C)CC2CC2)[C@H](C)CN([C@H](C)CO)C(=O)c2cc(NC(=O)Nc3cccc4ccccc34)ccc2O1 | inactive: 67.1%
2 | COc1ccc(CN(C)C[C@H]2OCCCC[C@@H](C)Oc3ccc(NC(=O)CCC(F)(F)F)cc3C(=O)N([C@@H](C)CO)C[C@@H]2C)cc1 | inactive: -60.5%
3 | C[C@H](CO)N1C[C@H](C)[C@H](CN(C)Cc2ccc(C(=O)O)cc2)OCCCC[C@H](C)Oc2ccc(NC(=O)Nc3ccc(C(F)(F)F)cc3)cc2C1=O | inactive: 50.6%
4 | CO[C@H]1CN(C)C(=O)c2cc(NC(C)=O)ccc2OC[C@H](C)N(Cc2cc(F)ccc2F)C[C@H]1C | inactive: -46.7%
5 | CC(C)NC(=O)N(C)C[C@H]1OCc2cn(nn2)CCCC(=O)N([C@@H](C)CO)C[C@H]1C | inconclusive: 108%
6 | COc1ccc(S(=O)(=O)N(C)C[C@@H]2OCCCC[C@@H](C)Oc3ccc(NC(=O)Nc4ccc5c(c4)OCO5)cc3C(=O)N([C@@H](C)CO)C[C@H]2C)cc1 | inconclusive: 103%
7 | C[C@H]1CCCCO[C@H](CN(C)S(=O)(=O)c2cccs2)[C@@H](C)CN([C@@H](C)CO)C(=O)c2cc(NS(=O)(=O)c3ccc(Cl)cc3)ccc2O1 | active: 103%
8 | Cc1ccc(S(=O)(=O)N(C)C[C@@H]2Oc3cc(-c4cccc(F)c4)ccc3S(=O)(=O)N([C@H](C)CO)C[C@H]2C)cc1 | active: 104%
9 | CC(C)NC(=O)N(C)C[C@@H]1OCCCC[C@H](C)Oc2ccc(NC(=O)Nc3ccc(C(F)(F)F)cc3)cc2C(=O)N([C@@H](C)CO)C[C@@H]1C | inconclusive: 103%
10 | C[C@@H]1CN([C@@H](C)CO)C(=O)c2cc(NC(=O)Cc3ccccc3)ccc2O[C@H]1CN(C)CC1CCCCC1 | inconclusive: 95.3%
11 | N#C[C@H]1[C@H](c2ccc(C#Cc3ccccc3F)cc2)[C@@H](CO)N1C(=O)c1cccnc1 | inconclusive: 96.3%
12 | COc1ccc(NC(=O)Nc2ccc3c(c2)C(=O)N([C@@H](C)CO)C[C@@H](C)[C@H](CN(C)C(=O)Nc2ccc(C(F)(F)F)cc2)OCCCC[C@H](C)O3)cc1 | inconclusive: 114%
13 | C[C@@H]1CCCCO[C@@H](CN(C)Cc2ccc(C(F)(F)F)cc2)[C@H](C)CN([C@@H](C)CO)C(=O)c2cc(NC(=O)Nc3ccc(C(F)(F)F)cc3)ccc2O1 | inconclusive: 89.4%
14 | Cc1noc(C)c1NC(=O)N[C@H]1CC[C@@H](CC(=O)NCCCN(C)C)O[C@@H]1CO | inconclusive: 95.9%
15 | CC(C)CC#Cc1ccc2c(c1)O[C@@H](CN(C)Cc1ccccc1F)[C@@H](C)CN([C@H](C)CO)S2(=O)=O | inconclusive: 124%
16 | OC[C@@H]1[C@@H](c2ccc(-c3ccc(F)cc3)cc2)[C@@H]2CN(CCC(F)(F)F)CCCCN12 | inactive: 48.1%
17 | CN1c2ccc(-c3cccc(C#N)c3)cc2[C@@H]2[C@@H](CCN2C(=O)Nc2cc(F)ccc2F)[C@@H]1CO | inconclusive: 95.8%
18 | C[C@@H]1CN([C@H](C)CO)S(=O)(=O)c2ccc(Br)cc2O[C@H]1CN(C)Cc1ccccc1 | inconclusive: 91.7%
19 | N#C[C@@H]1N[C@@H](CO)[C@H]1c1ccc(C#Cc2ccc(F)cc2)cc1 | inconclusive: 98.2%

Row | Compound | inhibition
20 | CCC(=O)N1CCCCN2[C@H](C1)[C@H](c1ccc(C#Cc3ccccc3F)cc1)[C@@H]2CO | inconclusive: 98.5%
21 | N#C[C@H]1[C@H](c2ccc(C#CC3(O)CCCC3)cc2)[C@H](CO)N1C(=O)C1CCC1 | active: 100%
22 | Cc1ccc(S(=O)(=O)N(C)C[C@H]2OCCCC[C@@H](C)Oc3ccc(NS(=O)(=O)c4ccccc4)cc3C(=O)N([C@@H](C)CO)C[C@@H]2C)cc1 | inconclusive: 108%
23 | CO[C@H]1CN(C)C(=O)c2cc(NS(=O)(=O)c3cccc(F)c3)ccc2OC[C@@H](C)N(Cc2cc(F)ccc2F)C[C@H]1C | inconclusive: 102%
24 | Cc1ccc(S(=O)(=O)Nc2ccc3c(c2)C(=O)N([C@H](C)CO)C[C@H](C)[C@H](CN(C)C(=O)Nc2ccc(F)cc2)OCCCC[C@H](C)O3)cc1 | inconclusive: 95.5%
25 | C[C@@H]1CCCCO[C@H](CN(C)Cc2ccc(C(F)(F)F)cc2)[C@@H](C)CN([C@@H](C)CO)C(=O)c2cc(NC(=O)C3CCCCC3)ccc2O1 | inconclusive: 121%
26 | CCCC#Cc1ccc2c(c1)O[C@H](CN(C)C(=O)C1CCC1)[C@H](C)CN([C@H](C)CO)S2(=O)=O | inconclusive: 95.5%
27 | COc1ccc(S(=O)(=O)N(C)C[C@@H]2OCCCC[C@H](C)Oc3ccc(NS(=O)(=O)c4ccccc4)cc3C(=O)N([C@@H](C)CO)C[C@H]2C)cc1 | inactive: 91.7%
28 | CC(C)C#Cc1ccc([C@@H]2[C@H]3CN(C(=O)Nc4ccccc4)CCCCN3[C@H]2CO)cc1 | inconclusive: 95.4%
29 | Cc1ccccc1S(=O)(=O)N1CC[C@H]2[C@H](CO)Nc3ccc(-c4ccc(C#N)cc4)cc3[C@H]21 | active: 115%
30 | N#Cc1cccc(-c2ccc3c(c2)[C@H]2[C@H](CCN2S(=O)(=O)c2cccc(F)c2)[C@@H](CO)N3)c1 | inconclusive: 96.6%
31 | C[C@H]1CN([C@@H](C)CO)S(=O)(=O)c2ccc(C#Cc3ccc(F)cc3)cc2O[C@@H]1CN(C)C(=O)c1ccccn1 | inconclusive: 97.7%
32 | O=C(NCC1CC1)[C@@H]1[C@@H](CO)[C@@H]2Cn3c(ccc(-c4cccnc4)c3=O)[C@@H]2N1C(=O)NC1CCCC1 | inconclusive: 97.6%
33 | C[C@H]1CN([C@@H](C)CO)C(=O)c2cc(C#CCN(C)C)cnc2O[C@@H]1CN(C)Cc1ccccc1F | inactive: 52.3%
34 | C[C@@H]1CN([C@@H](C)CO)S(=O)(=O)c2ccc(-c3ccncc3)cc2O[C@@H]1CN(C)Cc1ccc(Oc2ccccc2)cc1 | inconclusive: 132%
35 | O=C(Nc1ccc(F)cc1)N1C[C@H]2[C@@H](c3ccccc31)[C@@H](CO)N2C(=O)c1cccnc1 | inactive: 38%
36 | COc1ccccc1C(=O)Nc1ccc2c(c1)OC[C@H](C)N(C(C)=O)C[C@@H](C)[C@H](OC)CN(C)C2=O | inconclusive: 82.3%
37 | C[C@H]1CN([C@@H](C)CO)C(=O)c2cc(-c3ccc(F)cc3)cnc2O[C@@H]1CN(C)Cc1ccc(F)cc1 | inactive: 31.6%
38 | COc1ccc(CN(C)C[C@@H]2Oc3c(NC(=O)c4ccncc4)cccc3C(=O)N([C@@H](C)CO)C[C@H]2C)cc1 | active: 105%

Row | Compound | inhibition
39 | CO[C@H]1CN(C)C(=O)c2cc(NC(C)=O)ccc2OC[C@H](C)N(Cc2ccccc2F)C[C@H]1C | inactive: -18.6%
40 | C/C=C/c1ccc2c(c1)O[C@H](CN(C)Cc1ccccc1)[C@@H](C)CN([C@@H](C)CO)S2(=O)=O | active: 117%
41 | CCS(=O)(=O)N1CCCCN2[C@H](CO)[C@@H](c3ccc(-c4ccccc4F)cc3)[C@@H]2C1 | inconclusive: 95.9%
42 | C[C@@H]1CCCCO[C@@H](CN(C)Cc2ccc(C(F)(F)F)cc2)[C@H](C)CN([C@H](C)CO)C(=O)c2cc(N(C)C)ccc2O1 | inconclusive: 95.7%
43 | O=C(c1cccc(F)c1)N1CCCCN2[C@@H](CO)[C@H](c3ccc(/C=C/c4ccccc4)cc3)[C@@H]2C1 | active: 111%
44 | C[C@@H]1CN([C@H](C)CO)C(=O)c2cccc(NC(=O)c3ccc(-c4nccs4)cc3)c2O[C@@H]1CN(C)C(=O)Nc1ccc(C(F)(F)F)cc1 | inconclusive: 107%
45 | C[C@@H]1CCCCO[C@H](CN(C)C(=O)Nc2cccc3ccccc23)[C@@H](C)CN([C@@H](C)CO)C(=O)c2cc(NC(=O)c3ccccc3)ccc2O1 | inconclusive: 97.8%
46 | C[C@@H]1CCCCO[C@@H](CN(C)S(C)(=O)=O)[C@@H](C)CN([C@H](C)CO)C(=O)c2cc(NC(=O)Nc3ccc(F)cc3)ccc2O1 | inactive: 1.58%
47 | Cc1cc(C(=O)Nc2ccc3c(c2)C(=O)N(C)[C@@H]2CC[C@H](CC(=O)NC4CCCC4)O[C@H]2CO3)no1 | inactive: 30.2%
48 | COc1ccccc1C#Cc1ccc([C@H]2[C@@H](C#N)N(C(=O)C3CCC3)[C@@H]2CO)cc1 | inconclusive: 95.2%
49 | Cc1noc(C)c1S(=O)(=O)N(C)C[C@@H]1OCCCC[C@H](C)Oc2ccc(NC(=O)NC(C)C)cc2C(=O)N([C@H](C)CO)C[C@H]1C | inactive: 21.9%
50 | C[C@@H]1CCCCO[C@H](CN(C)C(=O)Nc2ccccc2)[C@H](C)CN([C@@H](C)CO)C(=O)c2cc(NS(=O)(=O)c3ccc(Cl)cc3)ccc2O1 | inconclusive: 97.4%
51 | O=S(=O)(Cc1ccccc1)N1CCCCN2[C@H](CO)[C@H](c3ccc(-c4ccc(F)cc4)cc3)[C@H]2C1 | inconclusive: 101%
52 | COc1ccc(CN(C)C[C@@H]2OCCCC[C@@H](C)Oc3ccc(NC(=O)Nc4ccc(C(F)(F)F)cc4)cc3C(=O)N([C@H](C)CO)C[C@@H]2C)cc1 | inconclusive: 104%
53 | CN1C(=O)c2cc(NC(=O)C3CC3)ccc2OC[C@@H]2O[C@H](CC(=O)NCCN3CCCC3)CC[C@@H]21 | inconclusive: 95.4%
54 | C[C@H](CO)N1C[C@H](C)[C@H](CN(C)C(=O)NC2CCCCC2)OCCCC[C@H](C)Oc2ccc(NC(=O)Nc3ccc(C(F)(F)F)cc3)cc2C1=O | inactive: 80.3%
55 | COc1ccc(C#Cc2ccc([C@H]3[C@@H](CO)N4CCCCN(C(=O)c5ccncc5)C[C@@H]34)cc2)cc1 | active: 116%
56 | Cc1ccc(S(=O)(=O)N(C)C[C@H]2OCCCC[C@@H](C)Oc3ccc(NS(=O)(=O)c4ccccc4)cc3C(=O)N([C@H](C)CO)C[C@H]2C)cc1 | inconclusive: 113%
